{"source": "paper PMC10668032", "note": "The other results are listed elsewhere or left out. At the low end of the ranking the order means little."}
{"biological_target": "SIX1 homeodomain (reference allele) (UniProt Q15475)", "assay": "universal protein binding microarray", "conditions": "Universal all-10-mer PBM (8x60K, AMADID 030236), 300 nM GST-tagged protein, Alexa Fluor 488 anti-GST; buffer, salt, pH and temperature not stated; high values mean tight binding; most listed sequences are background and not binding sites; double strand, one strand shown", "units": {"binding signal": "E-score"}}
{"sequence": "CAGTTGAA", "binding signal": -0.146}
{"sequence": "GCTCGTCA", "binding signal": -0.169}
{"sequence": "ACCGGAAG", "binding signal": -0.126}
{"sequence": "ACGTTACG", "binding signal": -0.216}
{"sequence": "CCAGATGC", "binding signal": 0.00855}
{"sequence": "GGCCTGCA", "binding signal": -0.224}
{"sequence": "ACGAAGTG", "binding signal": -0.178}
{"sequence": "GCGCGTGA", "binding signal": -0.00937}
{"sequence": "CAGATGGG", "binding signal": 0.042}
{"sequence": "ACCCCGAT", "binding signal": 0.356}
{"sequence": "ATGGGCTA", "binding signal": 0.00035}
{"sequence": "TCATATCA", "binding signal": 0.418}
{"sequence": "AAATCATT", "binding signal": -0.287}
{"sequence": "ATATCCTG", "binding signal": 0.394}
{"sequence": "AGAGCTAA", "binding signal": -0.252}
{"sequence": "AGGACATC", "binding signal": -0.126}
{"sequence": "CTCCTTAC", "binding signal": -0.0593}
{"sequence": "GGGGACAC", "binding signal": 0.161}
{"sequence": "CCTGGGCA", "binding signal": -0.036}
{"sequence": "ACCAGCGG", "binding signal": 0.088}
{"sequence": "ATGGCTCA", "binding signal": 0.133}
{"sequence": "TGGCGTAA", "binding signal": -0.0831}
{"sequence": "GCTAGGAC", "binding signal": -0.236}
{"sequence": "AGACGAAT", "binding signal": 0.0567}
{"sequence": "TAATCCCA", "binding signal": 0.144}
{"sequence": "GAGGCGCA", "binding signal": -0.0493}
{"sequence": "GCGTGTTA", "binding signal": -0.0776}
{"sequence": "CGTAGGTA", "binding signal": 0.08}
{"sequence": "AAACTCGC", "binding signal": -0.216}
{"sequence": "ATCATCGC", "binding signal": 0.326}
{"sequence": "AACGAGTC", "binding signal": -0.243}
{"sequence": "GATAGGCC", "binding signal": 0.209}
{"sequence": "ACCGTGAT", "binding signal": 0.294}
{"sequence": "GATCTCCC", "binding signal": 0.361}
{"sequence": "CCTGGCGC", "binding signal": -0.214}
{"sequence": "AGCAATAA", "binding signal": -0.0578}
{"sequence": "ACTCAATC", "binding signal": -0.105}
{"sequence": "ATGTTTGA", "binding signal": 0.0193}
{"sequence": "TAAGTGTA", "binding signal": 0.0749}
{"sequence": "CCAGCAGA", "binding signal": 0.0196}
{"sequence": "CACAGAGA", "binding signal": 0.039}
{"sequence": "CAATATTA", "binding signal": 0.0544}
{"sequence": "AATACTGG", "binding signal": 0.109}
{"sequence": "AGCAGAAA", "binding signal": -0.0824}
{"sequence": "CTGCAACA", "binding signal": -0.156}
{"sequence": "GGTAAACC", "binding signal": -0.0374}
{"sequence": "AGGCGCAA", "binding signal": -0.153}
{"sequence": "AAGCGAGT", "binding signal": -0.0842}
{"sequence": "CGAGACGA", "binding signal": 0.156}
{"sequence": "ATCACTAC", "binding signal": 0.287}
{"sequence": "CGGCTCAG", "binding signal": 0.103}
{"sequence": "GAATAACA", "binding signal": -0.0415}
{"sequence": "CCGGTGGC", "binding signal": -0.0242}
{"sequence": "AACAACCG", "binding signal": -0.0807}
{"sequence": "ACGAACCG", "binding signal": 0.116}
{"sequence": "ACGGTGTC", "binding signal": 0.437}
{"sequence": "GTAAGGGA", "binding signal": 0.0722}
{"sequence": "CAGTACAC", "binding signal": 0.124}
{"sequence": "AGTGCGAA", "binding signal": -0.27}
{"sequence": "GATCTCGA", "binding signal": 0.221}
{"sequence": "ATCGGCTA", "binding signal": 0.173}
{"sequence": "ACCAAAGC", "binding signal": -0.157}
{"sequence": "ATACGACA", "binding signal": 0.245}
{"sequence": "CCTGTTTA", "binding signal": -0.224}
{"sequence": "ACAATCGA", "binding signal": -0.196}
{"sequence": "CTTCATAA", "binding signal": -0.0638}
{"sequence": "AAGCAACT", "binding signal": -0.249}
{"sequence": "TATTTTAA", "binding signal": -0.0664}
{"sequence": "AAAGGGGT", "binding signal": -0.109}
{"sequence": "ACTGAGAA", "binding signal": -0.0128}
{"sequence": "GGCCTTCA", "binding signal": -0.268}
{"sequence": "ACTCTGTA", "binding signal": -0.0402}
{"sequence": "ATCTCAAA", "binding signal": 0.144}
{"sequence": "CCGAAACG", "binding signal": -0.043}
{"sequence": "GGTTGTCA", "binding signal": -0.153}
{"sequence": "AGGGCTAC", "binding signal": -0.102}
{"sequence": "AATCTTGG", "binding signal": -0.206}
{"sequence": "AGGCTTTA", "binding signal": -0.148}
{"sequence": "ATTATAGA", "binding signal": 0.1}
{"sequence": "CAGCTGGA", "binding signal": 0.157}
{"sequence": "CACTAATG", "binding signal": -0.0519}
{"sequence": "ACAAGTGA", "binding signal": 0.0567}
{"sequence": "CAGTAATA", "binding signal": 0.128}
{"sequence": "GGGTGGGA", "binding signal": 0.0261}
{"sequence": "TTCCTCAA", "binding signal": -0.21}
{"sequence": "ATCTAGGA", "binding signal": 0.157}
{"sequence": "ACAAGGGA", "binding signal": -0.0834}
{"sequence": "GTTCGTGA", "binding signal": -0.0136}
{"sequence": "AGCGCACC", "binding signal": -0.24}
{"sequence": "GTTACCAA", "binding signal": 0.0209}
{"sequence": "AGACAATA", "binding signal": 0.0677}
{"sequence": "TGGCCCAA", "binding signal": -0.206}
{"sequence": "AAAGCTTT", "binding signal": -0.247}
{"sequence": "GAATAATC", "binding signal": 0.209}
{"sequence": "AAATTGGG", "binding signal": -0.211}
{"sequence": "ACCACGTG", "binding signal": -0.188}
{"sequence": "CAACTGCA", "binding signal": -0.161}
{"sequence": "CCACGATA", "binding signal": 0.324}
{"sequence": "AGCGTTGG", "binding signal": 0.0303}
{"sequence": "ATATTAGG", "binding signal": 0.257}
{"sequence": "GAAATTGC", "binding signal": -0.276}
{"sequence": "CAAACTGG", "binding signal": 0.0125}
{"sequence": "CGACGAAC", "binding signal": 0.0173}
{"sequence": "GTACCAGA", "binding signal": -0.00118}
{"sequence": "CAGCACAG", "binding signal": -0.122}
{"sequence": "GTTTAACA", "binding signal": -0.0814}
{"sequence": "AGCCCGCG", "binding signal": 0.0348}
{"sequence": "AAACATGA", "binding signal": -0.0703}
{"sequence": "AATGCAGC", "binding signal": -0.106}
{"sequence": "CGTAAGGC", "binding signal": -0.208}
